Experimental data from PubChem BioAssay AID488969 (Vanderbilt High Throughput Screening Facility, 2010).
Where “and” joins values, the source holds several entries; their conditions need not be identical. Equal values may be shown once. Whole data set: some 110,000 compounds, median “z-score” near -0.1, cut for the highest 2% near 2. The list shows a part of the results.

Each molecule was assayed against Metabotropic glutamate receptor 8 (Rattus norvegicus) (UniProt P70579) (assay: rat mGluR8 modulators via GIRK flux, primary screen, cell-based, thallium flux, HTS (AID 488969)). Details: HEK293 rat mGluR8, GIRK (G protein-gated inwardly rectifying potassium channel) thallium flux, FluoZin2; at 10 µM; stronger effect = higher value.
Chain of UniProt P70579 (P70579 whole entry, looked up): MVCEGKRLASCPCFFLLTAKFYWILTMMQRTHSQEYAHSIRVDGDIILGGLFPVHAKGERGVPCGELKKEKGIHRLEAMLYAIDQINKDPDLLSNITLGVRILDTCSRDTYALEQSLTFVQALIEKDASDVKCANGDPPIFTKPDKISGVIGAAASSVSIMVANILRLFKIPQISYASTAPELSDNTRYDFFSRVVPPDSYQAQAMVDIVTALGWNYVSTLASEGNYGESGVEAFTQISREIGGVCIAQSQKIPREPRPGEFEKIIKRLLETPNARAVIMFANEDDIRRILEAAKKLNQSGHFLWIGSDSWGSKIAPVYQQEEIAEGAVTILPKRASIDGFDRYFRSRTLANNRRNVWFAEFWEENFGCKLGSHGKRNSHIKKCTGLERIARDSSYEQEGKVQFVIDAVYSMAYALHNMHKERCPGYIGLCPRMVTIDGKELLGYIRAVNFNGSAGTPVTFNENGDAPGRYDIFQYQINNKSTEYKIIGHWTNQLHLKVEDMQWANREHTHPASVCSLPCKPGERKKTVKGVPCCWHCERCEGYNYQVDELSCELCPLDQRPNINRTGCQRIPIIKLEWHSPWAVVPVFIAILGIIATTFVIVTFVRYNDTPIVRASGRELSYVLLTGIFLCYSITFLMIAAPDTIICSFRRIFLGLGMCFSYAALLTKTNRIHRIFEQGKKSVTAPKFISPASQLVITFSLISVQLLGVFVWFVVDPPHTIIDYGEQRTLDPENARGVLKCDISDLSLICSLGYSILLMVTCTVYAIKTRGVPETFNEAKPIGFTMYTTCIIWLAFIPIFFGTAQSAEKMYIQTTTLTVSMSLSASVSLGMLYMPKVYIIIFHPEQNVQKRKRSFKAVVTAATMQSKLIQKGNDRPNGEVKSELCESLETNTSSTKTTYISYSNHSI
For Brc1ccc(CN2CCNCC2)s1, the z-score was 0.00892. For Cc1ccc(CN2CC3CC(C2)c2cccc(=O)n2C3)cc1 (centres undefined), the z-score was -0.0631. Work on COc1ccc2c(c1)c(C(=O)O)c(C)n2C(C)C yielded a z-score of -0.218. Cc1cc(NC(=O)COC(=O)c2c(C)nn(Cc3ccccc3)c2Cl)no1 showed a z-score of -0.144. Work on OC(c1ccncc1)(c1ccc(F)cc1)c1ccc(F)cc1 yielded a z-score of -0.666. Molecule COCCCNC(=O)c1c(NC(=O)c2ccccc2)n(Cc2ccccc2)c2nc3ccccc3nc12 has a z-score of -0.0509. With COc1ccc(OC)c(N2C(=O)NC(=O)C3(Cc4cc(C)ccc4N(C)C3)C2=O)c1 (centres undefined) the z-score was -0.426. O=C(c1ccc(CS(=O)(=O)c2ccccc2)o1)N1CCC2(CC1)OCCO2 gave a z-score of 0.175. In the case of Cc1ccc(N2C(=O)NC(=O)/C(=C\c3cnc(-c4ccccc4)nc3)C2=O)cc1, the z-score is reported as -0.41. In the case of O=c1c2ccccc2nc(-c2ccccc2)n1-c1cccnc1, the z-score is reported as -0.194. For O=C(c1cc(C(=O)NCc2ccccc2)c(=O)n(Cc2ccccc2)c1)c1cc(Br)ccc1O, the z-score was 0.0905. Work on C=CCN1C(=O)CSc2ccc(C(=O)N3CCC4(CC3)OCCO4)cc21 yielded a z-score of -0.28. CCS(=O)(=O)N1CCCC(C(=O)N2CCC3(CC2)OCCO3)C1 (centres undefined) showed a z-score of 0.0065. In the case of O=C1CCCN1c1ccc(S(=O)(=O)O)cc1 (tested in a mixture with another compound), the z-score is reported as -0.0877. With CC(Cc1ccccc1Sc1ccc(O)cc1)N(C)C (centres undefined) the z-score was 1.64. With COC(=O)c1cncn1C(C)c1ccccc1 (centres undefined) the z-score was -0.22. CC(O)(CS(=O)(=O)c1ccccc1)C(=O)Nc1ccc(C(F)(F)F)cc1 (centres undefined) showed a z-score of 0.236. CCCC(=O)Nc1ccc(N2CCN(CC)CC2)c(Cl)c1 showed a z-score of -0.142. For CCOCCCn1c(N)c(C(=O)Nc2sc3c(c2C(=O)OC)CCCC3)c2nc3ccccc3nc21, the z-score was -0.316. In the case of Cc1oc(-c2ccc(Cl)cc2)nc1CS(=O)CC(=O)N1CCC2(CC1)OCCO2 (centres undefined), the z-score is reported as -0.308. Cc1cc(C)c(NC2=NCCCS2)c(C)c1 gave a z-score of 1.03. Work on COc1ccc(S(=O)(=O)NC(CC(=O)N2CCC3(CC2)OCCO3)c2ccco2)cc1 (centres undefined) yielded a z-score of -0.0947. Molecule O=C1C(=O)c2ccccc2-c2ccccc21 has a z-score of 0.416. Cn1c(CN2CCN(C(=O)COc3ccccc3)CC2)nc2cc([N+](=O)[O-])ccc21 gave a z-score of -1.43. With CC(=NCc1cccnc1)c1c(O)n(-c2ccccc2C)c(=O)[nH]c1=O the z-score was 0.169. CC(=O)NC(=O)NC(C)Cc1ccccc1 (centres undefined) gave a z-score of 0.0248. CCCCC1C(=O)NC(=S)NC1=O showed a z-score of -0.152. With CC(=NCc1cccnc1)c1c(O)n(C2CCCCC2)c(=O)[nH]c1=O the z-score was -0.0505. C(#CCN1CCOCC1)COCC#Cc1ccccc1 was tested, and the z-score was 0.199. In the case of CCc1c(C)nc(N)nc1N1N=C1SC, the z-score is reported as 0.21. In the case of Cc1ccccc1OCCN=Cc1c(O)n(C)c(=O)n(C)c1=O, the z-score is reported as -0.247. With Cc1cc(C=C2C(=O)NC(=S)NC2=O)c(C)n1-c1ccc2c(c1)OCO2 the z-score was -0.495. Molecule Nc1ccc(C(=O)N/N=C2/CN3CCC2CC3)cc1 has a z-score of 0.939. CC(=NCc1cccnc1)c1c(O)n(-c2ccccc2)c(=O)[nH]c1=O was tested, and the z-score was -0.0189. N#CCCn1cc(C(=O)Nc2ccccc2Br)c(-c2ccc3c(c2)OCCO3)n1 gave a z-score of -0.369. Work on CC(=NCCN1CCOCC1)c1c(O)n(Cc2ccccc2)c(=O)[nH]c1=O yielded a z-score of -0.628. In the case of COc1cccc(NP(=O)(Oc2ccccc2)Oc2ccccc2)c1, the z-score is reported as -0.112. In the case of Cc1ccc(OCC(=O)N2CCN(CC3CC4C=CC3C4)CC2)cc1 (centres undefined), the z-score is reported as -0.847. Molecule CCc1ccc(N2C(=O)NC(=O)/C(=C\c3cccn3CCOc3ccc(C(C)C)cc3)C2=O)cc1 has a z-score of -0.195. O=C(c1cc(-c2ccncc2)nc2ccccc12)N1CCC2(CC1)OCCO2 showed a z-score of -0.598. Molecule COc1cc(C2SCC(=O)Nc3c2c(C)nn3-c2ccccc2)cc(OC)c1OC (centres undefined) has a z-score of -0.0801. CCC(=NCCO)c1c(O)n(-c2ccc(Cl)cc2)c(=O)[nH]c1=O was tested, and the z-score was -0.403. For Cn1nc(-c2ccc(OCC(=O)N3CCN(Cc4ccccc4)CC3)cc2)c2ccccc2c1=O, the z-score was -0.22 and -0.55. O=c1c2ccccc2nc(CSc2ncnc3nc[nH]c23)n1-c1ccc(Cl)c(Cl)c1 was tested, and the z-score was -0.202. Work on CCN1C(=O)C(=Cc2cc(C)n(C3CC3)c2C)C(=O)N(CC)C1=S yielded a z-score of -0.0808. In the case of CCOC(=O)c1c(N)n(CCN2CCOCC2)c2nc3ccccc3nc12, the z-score is reported as -0.337. In the case of O=C(NCC(c1cccnc1)N1CCOCC1)Oc1ccccc1 (centres undefined), the z-score is reported as 0.264. Work on CCCC(C)n1[nH]c(=O)c2c1NC(=O)CSC2c1ccc(OC)c(OC)c1 (centres undefined) yielded a z-score of -0.203. CC/C(=N\Nc1cccc2ccccc12)c1c(O)[nH]c(=O)[nH]c1=O gave a z-score of -0.114. Molecule O=C(Cc1ccccc1)NC(Oc1ccccc1Cl)C(Cl)(Cl)Cl (centres undefined) has a z-score of -0.0918. Molecule CN1C(=O)/C(=C/c2ccc(N3CCCCCC3)o2)C(=O)NC1=S has a z-score of -0.805. CN1CCc2nc3sc(C(=O)NC(C)(C)C)c(N)c3cc2C1 showed a z-score of -0.79. O=C(C1CCC(=O)N1C1CCCCC1)N1CCC2(CC1)OCCO2 (centres undefined) was tested, and the z-score was -0.316. Molecule CCc1ccc(N2C(=O)NC(=O)C(Cc3ccc(OC)cc3OC)C2=O)cc1 (centres undefined) has a z-score of -0.562. In the case of CCCOP(=O)(OCCC)C(NC(=O)c1ccccc1)=C(Cl)Cl, the z-score is reported as -0.078. For N#Cc1ccccc1Cn1cc(C(=O)C2CC2)c2ccccc21, the z-score was 0.255. Work on CCCCNC(=O)c1c(N)n(Cc2ccc3c(c2)OCO3)c2nc3ccccc3nc12 yielded a z-score of 0.00707. O=c1[nH]c(=O)n(CCC2=CCCCC2)c(O)c1C=Nc1cccc(F)c1 was tested, and the z-score was -0.0602. CC(C)CCC1(CCc2ccncc2)C(=O)NC(=O)NC1=O showed a z-score of -0.237. With O=C(COC(=O)Cc1ccccc1)NC12CC3CC(CC(C3)C1)C2 the z-score was -0.0902. Molecule Cc1cc(C)n2nc(SCC(=O)N3CCC4(CC3)OCCO4)nc2n1 has a z-score of 0.345. Work on CN(C)C1=C(C#N)C(c2ccccc2)=NP(N(C)C)(N(C)C)=N1 yielded a z-score of 1.36. Cc1ccc(NC(=O)c2cn(CCC#N)nc2-c2ccc3c(c2)OCCO3)c([N+](=O)[O-])c1 was tested, and the z-score was 0.0107. Molecule Cc1ccc(N2C(=O)NC(=O)/C(=C/C=C/c3ccco3)C2=O)cc1 has a z-score of -0.463. With CCCC(C)C1(CC)C(=O)NC(=Nc2ccc(F)cc2)NC1=O (centres undefined) the z-score was -0.142. For O=C(Cc1ccccc1)Oc1cccc(N2C(=O)CCC2=O)c1, the z-score was 0.179. CN(C)c1cc(N)c2c(n1)CCC2 (tested in a mixture with another compound) showed a z-score of 0.506. For CCC(=NCc1ccc2c(c1)OCO2)c1c(O)n(C)c(=O)n(C)c1=O, the z-score was -0.46. In the case of CC1CCC/C=C/C2CC(O)CC2C(O)/C=C/C(=O)O1 (centres undefined), the z-score is reported as -0.522. For Cc1cc(C=O)c(C)n1C1CCCCC1, the z-score was -0.0555. CCc1ccc(NC(=O)C(C)OC(=O)c2c(C)nn(Cc3ccccc3)c2Cl)cc1 (centres undefined) gave a z-score of -0.0695. Work on O=C(Cn1cnc2ccccc2c1=O)NCCC(=O)N1CCC2(CC1)OCCO2 yielded a z-score of 0.539. In the case of Cc1cccn2c(=O)c3c(nc12)N1CCC(Cc2ccccc2)CC1C1(C3)C(=O)N(C)C(=O)N(C)C1=O (centres undefined), the z-score is reported as -0.109. With CCCCCc1nc2ccccc2c(=O)n1-c1ccc(Cl)cc1[N+](=O)[O-] the z-score was -0.289. CN(C)C(Cc1ccc(Cl)cc1)C(=O)c1ccccc1 (centres undefined) gave a z-score of -0.222. With Cn1c2ccccc2c2c(C(=O)N3CCC4(CC3)OCCO4)cn(C3CCCCC3)c(=O)c21 the z-score was -0.338. CS(=O)(=O)N1CCCC(C(=O)N2CCC3(CC2)OCCO3)C1 (centres undefined) gave a z-score of 0.0109. For N#Cc1ccc(Cn2cc(C(=O)c3ccco3)c3ccccc32)cc1, the z-score was -0.561. In the case of O=C(Cc1ccccc1)OCn1nnc2ccccc2c1=O, the z-score is reported as -0.2. Work on CCCN(CC#CCO)CCC yielded a z-score of 0.103. CC(C)N1C(=O)NC(=O)C2(Cc3cc([N+](=O)[O-])ccc3N(C)C2c2ccccc2)C1=O (centres undefined) was tested, and the z-score was -0.35. Nc1cccc(N=Cc2c(O)n(Cc3ccc(F)cc3)c(=O)[nH]c2=O)c1 showed a z-score of 0.514. For CCC(C)C12CN3CCN(CC(C)(C3)C1=O)C2 (centres undefined), the z-score was -0.0708. With Cc1cc(C=C2C(=O)N(C)C(=S)N(C)C2=O)c(C)n1C1CCCC1 the z-score was -0.175. In the case of O=c1cccc2n1CC1CC2CN(C(c2cccc(F)c2)c2sc3ncnn3c2O)C1 (centres undefined), the z-score is reported as -0.481. Work on CCOC(=O)C1CN(C)CCC1=O (centres undefined) yielded a z-score of 0.538. For Cc1ccc(-n2c(C)cc(/C=C3/C(=O)NC(=O)N(Cc4ccco4)C3=O)c2C)cc1, the z-score was 0.147. Work on CN1CCC(N(C)c2nc(-c3ccccc3)nc3ccccc23)CC1 yielded a z-score of 0.199. Molecule O=C1C2CCCN2C(c2ccc(Cl)cc2)N1c1ccccn1 (centres undefined) has a z-score of 2.77. Work on CN1CCN(Cc2ccc(OC(F)(F)F)cc2)CC1 yielded a z-score of -0.0428. Work on Cc1cccc(N2C(=O)NC(=O)/C(=C\c3cccn3-c3ccc(Cl)cc3)C2=O)c1 yielded a z-score of -0.0172. Molecule Cc1cccc(-n2c(/C=C/c3ccc([N+](=O)[O-])o3)nc3ccccc3c2=O)c1 has a z-score of -0.323. CN(C)C(=O)Oc1ccc(-c2nnco2)cc1 showed a z-score of 0.238. For CC(O)(CS(=O)(=O)c1cccc(C(F)(F)F)c1)C(=O)Nc1ccc(C(F)(F)F)cc1 (centres undefined), the z-score was 0.252. COc1ccc(C2C([N+](=O)[O-])=C(N)Oc3c2c(=O)oc2ccccc32)cc1 (centres undefined) showed a z-score of -0.321. With O=C1C2CCN(CC2)C1Cc1ccccc1O (centres undefined) the z-score was -0.0121. With CC(C)C1(C)N=C(c2ncccc2C(=O)O)NC1=O (centres undefined) the z-score was -0.149. Work on O=C(CN1CCCCC1)c1ccc(OC(F)F)cc1 yielded a z-score of 0.0855. C=CCN1C(=O)/C(=C/c2ccc(N3CCOCC3)o2)C(=O)NC1=S gave a z-score of -0.391. For O=C(C1CC(=O)N(C2CCCCC2)C1)N1CCC2(CC1)OCCO2 (centres undefined), the z-score was -0.448. COc1ccc(CCNCc2ccncc2)cc1 gave a z-score of 0.0405. C=CCn1c(O)c(C=Nc2ccc(OC)cc2C)c(=O)[nH]c1=O was tested, and the z-score was -0.579. For COc1ccccc1-n1c(O)c(C=NCCN2CCNCC2)c(=O)[nH]c1=O, the z-score was 0.531. COc1ccc(CCn2c(O)c(C=NCCCN(C)C)c(=O)[nH]c2=O)cc1OC was tested, and the z-score was 0.11. Molecule CCCNS(=O)(=O)c1ccc(OCC(=O)N2CCN(Cc3ccccc3)CC2)cc1 has a z-score of -0.226. O=C1NC(=O)N(Cc2ccccc2Cl)C(=O)/C1=C/N1CCOCC1 showed a z-score of -0.529. NCC(CC(=O)O)C1CCCCC1 (centres undefined) showed a z-score of -0.206. O=c1[nH]c(=O)n(-c2cccc3ccccc23)c(O)c1C=NCCCn1ccnc1 showed a z-score of 0.105. N#Cc1c(/N=C/c2ccc(O)cc2O)sc2c1C1CCN2CC1 showed a z-score of -0.499.
